# Out of some 44,000 compounds screened, about 340 (0.77%) were called active. Not shown: some 5% with an inconclusive outcome. Calls come from the whole dose curve; as a rule, active = well fitted inhibition curve with a large enough effect; inconclusive = small, poorly fitted or top-dose-only effect; inactive = flat fitted curve, though single readings scatter. The list shows a part of the results.
# Test: Acumen qHTS Assay for Inhibitors of the mTORC1 Signaling Pathway in MEF (Tsc2-/-, p53-/-) Cells: Sytravon;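 note: plate controls were DMSO for no effect and rapamycin for full effect; nearly all actives have a fitted effect of over 50% in size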
# Settings: phospho-rpS6 immunofluorescence/PI, 24 h; series mostly up to 38.3 µM; activity change, negative = inhibition: at the top concentration
# Summary of the method: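 Cell-based qHTS: Tsc2-/- p53-/- MEF, 24 h cpd, 37 °C; fix/perm, anti-phospho-S6 Alexa-488 + PI; Acumen 488 nm scan; pS6/PI ratio, % positive cells; rapamycin 7.5 nM = inhibition ref; PI count = viability.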
row,SMILES,"activity change, negative = inhibition"
1,Cc1nc(N2CCCC2)c2c(C(=O)N3CCN(c4cccc(C)c4C)CC3)c(C)oc2n1,inactive: 5.53%
2,CCC(=O)Nc1ccc2nc(SCc3ccc(C)cc3)sc2c1,inactive: -6.9%
3,CC(C)c1ccccc1NC(=O)CN1C(=O)c2cccc3cccc1c23,inactive: -13.2%
4,O=C(CSc1nc(-c2ccccc2)[nH]c1-c1ccccc1)Nc1ccc2c(c1)OCCO2,inactive: 2.44%
5,CCCSCCCNC(=O)c1ccc2c(c1)nc1n2CCCCC1,inactive: 7.21%
6,Cc1ccc(Nc2cc(C)c(C#N)c3nc4ccccc4n23)cc1Cl,inactive: 2.44%
7,CC(C)c1cc(-c2nc(-c3ccccc3)no2)n[nH]1,inactive: 1.33%
8,CN(CC(=O)Nc1ccccc1Cl)S(=O)(=O)c1ccc(C(=O)N2CCOCC2)s1,inactive: -0.246%
9,COc1ccc(S(=O)(=O)N2CCN(Cc3ccc4c(c3)OCO4)CC2)cc1OC,inactive: -17.5%
10,COCCNC(=O)c1nn(-c2ccc(Cl)cc2)nc1CO,inactive: 1.7%
11,Cn1cnc(S(=O)(=O)N2CCC(C(=O)NCc3ccc(Cl)cc3)CC2)c1,inactive: 0%
12,COc1ccc(CNC(=O)c2cc3c(=O)n(C)c4ccccc4c3n2C)cc1,inactive: 0.191%
13,O=C(Cc1ccccc1)N(Cc1cccnc1)c1nc2ccc(F)cc2s1,inactive: -5.23%
14,O=C(CSc1ccccc1)NCc1ccc2c(c1)CCN2C(=O)c1ccc(F)cc1,inactive: -13.3%
15,CCOc1cc(C2CC(=O)Nc3nc(SCc4ccccc4)[nH]c(=O)c32)ccc1O (stereo not drawn),inactive: 0.52%
16,CCc1ccc2oc(-c3ccc(NC(=O)c4cc(OC)c(OC)c(OC)c4)cc3)nc2c1,inactive: -6.98%
17,CCOC(=O)c1ccc(N2C(=O)c3[nH]nc(-c4ccc(OCC)cc4)c3C2c2ccc(OC)cc2OC)cc1 (stereo not drawn),inactive: 2.69%
18,O=C(Nc1cccc2cccnc12)c1ccc(F)cc1,inactive: -1.49%
19,Cc1ccccc1-c1nnc(C2CCN(S(=O)(=O)c3ccc(Cl)cc3)CC2)o1,inactive: 0.362%
20,CCc1ccc(CNC(=O)CCCN2C(=O)c3cccnc3Oc3ccc(Cl)cc32)cc1,inactive: -5.42%
21,O=C(COc1ccccc1)Nc1nnc(S(=O)(=O)N2CCCCCC2)s1,inactive: -18.9%
22,Cc1nn2c(=O)cc(COC(=O)C(c3ccccc3)c3ccccc3)nc2s1,inactive: -16.3%
23,COc1ccc(CNC(=O)c2cc3c(=O)[nH]c4ccccc4c3n2C)c(OC)c1,inactive: 3.1%
24,Cc1ccc2c(c1)N(C(=O)N1CCC(C(=O)NCc3cccs3)CC1)CC(C)O2 (stereo not drawn),inactive: 1.59%
25,COc1ccc(CCNC(=O)CCCn2c(=O)c3ccccc3n(CC(=O)Nc3ccc(C)cc3Cl)c2=O)cc1OC,inactive: -31%
26,CC(NC(=O)CN1C(=O)COc2ccc(Cl)cc21)c1ccccc1 (stereo not drawn),inactive: -0.11%
27,Cc1cccc(N(CC(=O)NCCSc2ccc(Cl)cc2)S(C)(=O)=O)c1C,inactive: 1.81%
28,Cc1ccc(-c2c(C(=O)N(C)Cc3ccccc3)oc(=O)c3ccccc23)cc1,inactive: -9.03%

# — PubChem BioAssay AID493208 (National Center for Advancing Translational Sciences (NCATS), 2011)
